# Experimental data as given in the supplement of paper PMC10037445.
# Where “and” joins values, the source holds several entries; their conditions need not be identical. Equal entries are not always repeated. Over roughly 2,900 compounds, “IRF Lucia reporter activity, fold change vs agonist alone” has its median near 0.9; the highest 2% begin near 2.8. This is one part of the list.
# Columns and labels:
# RAW-Dual [1] = test: IRF Lucia reporter activity, fold change vs agonist alone; cytotoxicity flag (confluency mask): not cytotoxic; higher = enhanced IRF activity
# How it was run: (§1)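 After 50 nL of library stock was delivered by pin tool to RAW-Dual macrophages (50,000 cells/well, DMEM, 384-well plates), a PRR agonist was added 1 h later and the plates were kept at 37 °C, 5% CO2. Twenty hours later, IRF was read from supernatant by QuantiLuc luminescence and NF-κB by QuantiBlue absorbance at 620 nm. Reporter activity is stated as fold change over agonist-alone wells. Wells with IncuCyte confluency under 70% of agonist controls in both mask sets were counted as cytotoxic.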
# RAW-Dual [2] = test: IRF Lucia reporter activity, fold change vs agonist alone; higher = enhanced IRF activity; settings: library stock concentration (final ~1000-fold dilution): 10 mM, agonist: MPLA (TLR4) […]
# How it was run: as §1
# RAW-Dual [3] = test: IRF Lucia reporter activity, fold change vs agonist alone; cytotoxicity flag (confluency mask): cytotoxic (confluency <70% of control); higher = enhanced IRF activity
# How it was run: as §1
# [4] = agonist: 3'3'-cGAMP (STING) 10 ug/mL
# [5] = cytotoxicity flag (confluency mask): not cytotoxic
# [6] = cytotoxicity flag (confluency mask): cytotoxic (confluency <70% of control)
smiles,measurement,setting,value
COc1cc(C(N)=O)nc(-c2cccc(C#C[C@]3(O)CCN(C)C3=O)c2)c1 (library stock concentration (final ~1000-fold dilution): 10 mM),IRF Lucia reporter activity,RAW-Dual [1]; [4],0.0732
same,IRF Lucia reporter activity,RAW-Dual [1]; agonist: LPS (TLR4) 0.1 ug/mL,0.256
O=C(NCCCNc1nc(Nc2cccc(CN3CCOCC3)c2)ncc1C1CC1)C1CCC1 (library stock concentration (final ~1000-fold dilution): 10 mM),IRF Lucia reporter activity,RAW-Dual [1]; [4],0.0197 and 0.0115
same,IRF Lucia reporter activity,RAW-Dual [1]; agonist: LPS (TLR4) 0.1 ug/mL,0.0224 and 0.0156
CC12CCC(CC1)C(C)(C)O2 (library stock concentration (final ~1000-fold dilution): 10 mM),IRF Lucia reporter activity,RAW-Dual [1]; [4],1.15
same,IRF Lucia reporter activity,RAW-Dual [1]; agonist: LPS (TLR4) 0.1 ug/mL,1.21
CC12CCC(CC1)C(C)(C)O2,IRF Lucia reporter activity,RAW-Dual [2]; [5],1.16
CN1CCN(CCOc2cc(OC3CCOCC3)c3c(Nc4c(Cl)ccc5c4OCO5)ncnc3c2)CC1 (library stock concentration (final ~1000-fold dilution): 10 mM),IRF Lucia reporter activity,RAW-Dual [3]; [4],0.331
same,IRF Lucia reporter activity,RAW-Dual [3]; agonist: LPS (TLR4) 0.1 ug/mL,0.204
CN1CCN(CCOc2cc(OC3CCOCC3)c3c(Nc4c(Cl)ccc5c4OCO5)ncnc3c2)CC1,IRF Lucia reporter activity,RAW-Dual [2]; [6],0.802
COc1c(O)c(C)cc2c1C(=O)c1c(O)cccc1C2=O (library stock concentration (final ~1000-fold dilution): 10 mM),IRF Lucia reporter activity,RAW-Dual [1]; [4],1.11
same,IRF Lucia reporter activity,RAW-Dual [1]; agonist: LPS (TLR4) 0.1 ug/mL,0.872
O=C(NCC1CN(c2ccc(N3CCOCC3=O)cc2)C(=O)O1)c1ccc(Cl)s1 (configuration not stated),IRF Lucia reporter activity,RAW-Dual [2]; [5],1.07
O=C(NCC1CN(c2ccc(N3CCOCC3=O)cc2)C(=O)O1)c1ccc(Cl)s1 (configuration not stated) (library stock concentration (final ~1000-fold dilution): 10 mM),IRF Lucia reporter activity,RAW-Dual [1]; [4],1.05
same,IRF Lucia reporter activity,RAW-Dual [1]; agonist: LPS (TLR4) 0.1 ug/mL,1.16
Nc1ccc(S(=O)(=O)Nc2ccnn2-c2ccccc2)cc1 (library stock concentration (final ~1000-fold dilution): 10 mM),IRF Lucia reporter activity,RAW-Dual [1]; [4],1.09
same,IRF Lucia reporter activity,RAW-Dual [1]; agonist: LPS (TLR4) 0.1 ug/mL,0.99
Nc1ccc(S(=O)(=O)Nc2ccnn2-c2ccccc2)cc1,IRF Lucia reporter activity,RAW-Dual [2]; [5],0.994
Cc1ccc(NC(=O)c2ccc(CN3CCC(N(C)C)C3)c(C(F)(F)F)c2)cc1Nc1nccc(-c2cncnc2)n1 (configuration not stated),IRF Lucia reporter activity,RAW-Dual [2]; [6],0.195
Cc1ccc(NC(=O)c2ccc(CN3CCC(N(C)C)C3)c(C(F)(F)F)c2)cc1Nc1nccc(-c2cncnc2)n1 (configuration not stated) (library stock concentration (final ~1000-fold dilution): 10 mM),IRF Lucia reporter activity,RAW-Dual [3]; [4],0.138
same,IRF Lucia reporter activity,RAW-Dual [3]; agonist: LPS (TLR4) 0.1 ug/mL,0.0236
CC1(Cn2ccnn2)C(C(=O)O)N2C(=O)CC2S1(=O)=O (configuration not stated),IRF Lucia reporter activity,RAW-Dual [2]; [5],0.989
CC1(Cn2ccnn2)C(C(=O)O)N2C(=O)CC2S1(=O)=O (configuration not stated) (library stock concentration (final ~1000-fold dilution): 10 mM),IRF Lucia reporter activity,RAW-Dual [1]; [4],0.987
same,IRF Lucia reporter activity,RAW-Dual [1]; agonist: LPS (TLR4) 0.1 ug/mL,1.04
CCOCC(O)COc1ccc(NC(=O)CC[S+](C)C)cc1 (configuration not stated) (library stock concentration (final ~1000-fold dilution): 10 mM),IRF Lucia reporter activity,RAW-Dual [1]; [4],0.807
same,IRF Lucia reporter activity,RAW-Dual [1]; agonist: LPS (TLR4) 0.1 ug/mL,0.648
CCOCC(O)COc1ccc(NC(=O)CC[S+](C)C)cc1 (configuration not stated),IRF Lucia reporter activity,RAW-Dual [2]; [5],0.715
O=C(CCCCCCNC(=O)c1cnc(N(c2ccccc2)c2ccccc2Cl)nc1)NO (library stock concentration (final ~1000-fold dilution): 10 mM),IRF Lucia reporter activity,RAW-Dual [3]; [4],0.0412
same,IRF Lucia reporter activity,RAW-Dual [3]; agonist: LPS (TLR4) 0.1 ug/mL,0.506
COc1cc2nc(N3CCCN(C)CC3)nc(NC3CCN(Cc4ccccc4)CC3)c2cc1OC.Cl.Cl.Cl (library stock concentration (final ~1000-fold dilution): 10 mM),IRF Lucia reporter activity,RAW-Dual [3]; [4],0.0149
same,IRF Lucia reporter activity,RAW-Dual [3]; agonist: LPS (TLR4) 0.1 ug/mL,0.0762
COc1cc(O)c2c(=O)cc(-c3ccc(O)c(O)c3)oc2c1 (library stock concentration (final ~1000-fold dilution): 10 mM),IRF Lucia reporter activity,RAW-Dual [1]; [4],0.031
same,IRF Lucia reporter activity,RAW-Dual [1]; agonist: LPS (TLR4) 0.1 ug/mL,0.362
Br.Cc1ccc(C(=O)Cn2c3c(sc2=N)CCCC3)cc1 (library stock concentration (final ~1000-fold dilution): 10 mM),IRF Lucia reporter activity,RAW-Dual [1]; [4],0.943
same,IRF Lucia reporter activity,RAW-Dual [1]; agonist: LPS (TLR4) 0.1 ug/mL,0.956
Br.Cc1ccc(C(=O)Cn2c3c(sc2=N)CCCC3)cc1,IRF Lucia reporter activity,RAW-Dual [2]; [5],1.08
COc1cc2c3cc1Oc1c(OC)c(OC)cc4c1C(Cc1ccc(O)c(c1)Oc1ccc(cc1)CC3N(C)CC2)N(C)CC4 (configuration not stated) (library stock concentration (final ~1000-fold dilution): 10 mM),IRF Lucia reporter activity,RAW-Dual [1]; [4],0.225
same,IRF Lucia reporter activity,RAW-Dual [1]; agonist: LPS (TLR4) 0.1 ug/mL,1.17
CCc1c(C)[nH]c2c1C(=O)C(CN1CCOCC1)CC2.Cl (configuration not stated) (library stock concentration (final ~1000-fold dilution): 10 mM),IRF Lucia reporter activity,RAW-Dual [1]; [4],1.04
same,IRF Lucia reporter activity,RAW-Dual [1]; agonist: LPS (TLR4) 0.1 ug/mL,1.31
CCc1c(C)[nH]c2c1C(=O)C(CN1CCOCC1)CC2.Cl (configuration not stated),IRF Lucia reporter activity,RAW-Dual [2]; [5],1.06
CCC(=O)c1c(O)cc(O)cc1O,IRF Lucia reporter activity,RAW-Dual [2]; [5],0.971
CCC(=O)c1c(O)cc(O)cc1O (library stock concentration (final ~1000-fold dilution): 10 mM),IRF Lucia reporter activity,RAW-Dual [1]; [4],0.978
same,IRF Lucia reporter activity,RAW-Dual [1]; agonist: LPS (TLR4) 0.1 ug/mL,1.06
C=CC(=O)Nc1ccc2ncnc(Nc3cccc(Br)c3)c2c1,IRF Lucia reporter activity,RAW-Dual [2]; [5],0.0844
C=CC(=O)Nc1ccc2ncnc(Nc3cccc(Br)c3)c2c1 (library stock concentration (final ~1000-fold dilution): 10 mM),IRF Lucia reporter activity,RAW-Dual [1]; [4],0.032
same,IRF Lucia reporter activity,RAW-Dual [1]; agonist: LPS (TLR4) 0.1 ug/mL,0.11
